# According to the supplement of paper PMC12632987:
# In all, about 4,500 sequences were measured (“median log2 fold change of GCK-ALFA target abundance (FLAG IP / Myc IP barcode read proportion)”: median about 0.078, lowest 2% from about -0.6 on). Some of the results follow.
# B1: GBRAP_52_6085 (protein)
# chain: MEEEIEERAEEIYEAIKAGDKEKALALIKKAIKEFSAEEIKRMLELTAKRVASLGDDAHELFVDILGEAEDLLIEAGISEEEALAIVGAAEAALARAVAA
# B2: GBRAP_80_6783 (protein)
# chain: MEEEIEKVIEEIEKIDPEVAKVVKEIVELLKEIGVPLEIILEIVETILDGKDLPKEELLKIAKEVLKEAKELAEYKDEFSPEDIGKMVLAVALTELEEAE
# B3: GBRAP_160_3981 (protein)
# chain: SAEIEKLKKEIKEIFEEAKEMIEGESYEERLAIIRVAVGEIILLVEEDPNTSDETVEKVAEIGDELVEYIEEHPELTEEEIKELIEEALEKILKVIDEDA
# B4: GBRAP_52_6377 (protein)
# chain: AVEEAKKLLREAIELIMKGGPKEEVEALAKKLLEYPEEVIEEAAEKLAEELKGWSPEEAEKALEAAIELSDILIELGLPEEVASYIEAEIGKAAYEVLQK
# B5: GBRAP_78_6602 (protein)
# chain: EVEELLEKALEELDKAEKLTKELPEEKRNELLSLLVEARSSLLEAFENKPDLKDLEEALKYVEEAIKLAKEIDTEEAKKLLKELEKAKEYLKKAIELLKK
# B6: GBRAP_78_6619 (protein)
# chain: ETKEKIIELLDRARDRMREIARREPEVRDLANEAAVLVGTAILMVDTGEESKEEIIEELEEALKVAKELLERLEGRDEESVKLAKEAIEDLKKAIELVKK
# B7: GBRAP_184_5249 (protein)
# chain: AVSSLELTVRSAEDIPAAVAAFAAHAAAHKGTLHVLLDAENLTTDEKATLVAALGAAAAAAGVTRLIIDLTEEVTEEEADKLIATADAHGVQLVLALKDE
# B8: GBRAP_43_5785 (protein)
# chain: SEELVAGALETAELLFELPEVSDEQKVRAAIAAFDLAADEGIDDKEAIAKVVKAAAASLSKAALEKLLAHAKELAKKHPELKATFDAAAATLAAAIAAKA
# B9: GBRAP_52_5918 (protein)
# chain: MKERIRKIAEEILEAAEAGKEEEMEKLIKKAVEELNTEELKELIEELAELTIERGPEYYDIAAKIFDILEDEVEEAGKDVEEIDYAIARAFGKIYKALQA
# B10: GBRAP_128_3220 (protein)
# chain: MAEEAEEKVRELLEKIKEADEEERKKLAKELAELVASQPVEVAEAMAKVVEELAPELSEEDLEILMEAFEEAARARDDEVSLVLAEIAIIFGEQILELEE
# B11: GBRAP_52_6015 (protein)
# chain: MREELRAFLLEVLALVRAGKEEEARALLRERVAALDEEELELLIEELAELARAAAPEDQEAVWRLAEMLAEELEEAGVDEALADDLEARVAAALYEAEQR
# B12: GBRAP_195_5413 (protein)
# chain: RKVVAEVLTVTAEDTPEQILAKIRAIVERNKAESNGDLVLVVRRDPSVPASVIRDAVAEAQAAFPEIKITVTIFDDISLPLETAERFAAMEAANLAEELE
# B13: GBRAP_160_4336 (protein)
# chain: SERTEKLKKFIREEFEEAKKLIEGQSIEQRKVIIEGTFGVIFMELSEDPNVSDELLDKVIEIEDELLETIDENPDLSEEEIKELIDEAEKKIIEALDKSE
# B14: GBRAP_52_6357 (protein)
# chain: KLEEALALLERALEAMLAGREDEARAILREIVETYDDETILAAFERLAEKILGKSVEEAEAFLDLALLLADVMDELGRDEAVGDEIEAIAAKAYMTVLEK
# B15: GBRAP_78_6621 (protein)
# chain: ELEELLEKAIEKLNKAAKLALKLKTPKADELLGELVDAMTDLEESEEEGGDLEKLEEALKHIEKAIKLAKELGNEELVKELEEAKKLVEKAIELKKKELE
# B16: GBRAP_184_5147 (protein)
# chain: MTLKAAIEAETVEEAIKKAKEVFKEAKAKGADLTLAIFAEGFSVEEVKELAEKVKKLADEYGLTNATIILEVEANEEEADKVIKAADEAGVRVVVALLEE
# B17: GBRAP_128_3439 (protein)
# chain: SQEELLAKALALLDEIVASDVETAAKLAKELAELLGQLDEESREKVVKYFEEKAKKLTEEKLEAISDALREQVPKLDPLTANALNEMMVELGERILELEE
# B18: GBRAP_128_3252 (protein)
# chain: MNAEVVAQAKAFVEALKNSDAATRKAIAAAFAAWLLSLSDEDAAQAVAVVKERLPELSVEDLDILADALRAAMPAASPEKANLLADLEVEALNEAEEKEE
# B19: GBRAP_14_3823 (protein)
# chain: TAALTALIDAGFAALTATLSDIVPAHAAEIAALVDAVRAALLATIAATGDVAAAVDAARAALLAGLEALLADAPAEDRTAALAAARVEMAELEAELDEAE
# B20: GBRAP_160_4022 (protein)
# chain: SESVEEIIADFGEELDLIAAHADEMDVDTLAGALRTAVGQAIMDAAENPDMADWTREEVDALDALADEAAAVMGTGDPAARRAALERLREAVAAAVKKAA
# B21: GBRAP_83_6871 (protein)
# chain: AEEITVATTGDHIESAVDAAIDLSKNEGYDVTLEIIATPEQRDAVLAAVRRLAEAGVTMEIVIVLRGATPEQAAALEAEIRAILAAAGVDNTIEVILEEP
# B22: GBRAP_52_6325 (protein)
# chain: MEEKIKKYAEELYAAIVAGDKEKAYALAEEAVEELTPEEILEMAKIVAEKIATEDDEVHERAAEVFEYLADLVIEKKGDEKTAAEILGIYAKTLYAAELK
# B23: GBRAP_160_4803 (protein)
# chain: NPRVDAVAALFREALDEALAMSEGESVEERANIFDVETYTAILEAEERGLLNDEEEEVAVAVADALVAEVRANPDLTPEQLAALAAAAVAELRARLEALA
# B24: GBRAP_160_4279 (protein)
# chain: SEKLLELAEELEEDREEILSLVDEISAEEVRTLAVTDLGSILLEAIDLELLSDEEEDELAKIIDDLDAELAAAADASPAERRAIITRHYDKAIELLRKAA
# B25: GBRAP_125_3137 (protein)
# chain: KREALIALARALAEAFGLSEEDIAELMELAERFDPGQTIVAVLLAAGFEEAAELAERVLPRLTEEEARELRALAEELRDAPLEEFRARLTARLEELLARQ
# B26: GBRAP_160_4626 (protein)
# chain: SEKLKKAKERIEEEAEFVLSLVDEVDVETLAHFLDTEFGSTILELLEEGLISEELADELMEIVDEAVDYLLAHPDLTPEERRELIEKTREEMIKTLEKHY
# B27: GBRAP_160_4255 (protein)
# chain: AAKVDEIAADLAAEMDDAIAEAAELTPEELAALIAGTIGSAIMELIELGLITDEQEDELIALEDQAVAAALAKDELTLDELRARLQALRDAILAVLEKAK
# B28: GBRAP_128_3576 (protein)
# chain: SDEEILEKAKELIKKIIESDVEEAKKYAEELAKLLKEADPETREKIVELILEALPKLSVEKLEVLADVFREQRPKADPETANLLAEIEVEALNEAVEKEE
# B29: GBRAP_74_6541 (protein)
# chain: MEEKVKKIKELIEEGKFEEAFELTKEIIRNEDPETAVKAMEVLTKGVIEHKEELTLEEAELLGEVIVELYLRVPDELISDELAKLINETLAIIMEIEEKA
# Molecular target: GABARAP, O95166
# Sequence (O95166 whole entry, the tested form may be a part): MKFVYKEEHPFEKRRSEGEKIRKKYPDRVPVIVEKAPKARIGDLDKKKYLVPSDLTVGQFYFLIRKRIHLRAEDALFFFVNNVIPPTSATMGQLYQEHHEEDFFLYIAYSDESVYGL
# Assay: median log2 fold change of GCK-ALFA target abundance (FLAG IP / Myc IP barcode read proportion) (log2 ratio); each designed protein is fused to an ALFA-tag nanobody in HEK293 cells to bring the named protein to FLAG-tagged glucokinase (GCK); Myc marks an untargeted standard; higher = target protein stabilised (more abundant)
# Details: target protein: 3xFLAG-MCP-GCK-ALFA reporter; HEK293 landing pad (RPLP)
# Procedure, shortened: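 Binders fused to an ALFA nanobody were recombined as a library into HEK293 landing-pad cells, which were induced with 2 μg mL^−1 doxycycline and then transfected to express a FLAG-tagged target and a Myc-tagged standard. After 48 h, circular RNA barcodes recovered by anti-FLAG and anti-Myc immunoprecipitation of lysates were reverse transcribed, amplified and sequenced. Each binder's target abundance is the median log2 ratio of FLAG to Myc barcode read proportions, from barcodes present at ≥10^−7 in both replicates, binders carrying ≥3 barcodes per replicate, a 10^−6 pseudocount and pooled replicates.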
row,Binder,median log2 fold change
1,B1,-0.146
2,B2,0.0366
3,B3,-0.219
4,B4,-0.15
5,B5,0.165
6,B6,0.338
7,B7,-0.0297
8,B8,0.176
9,B9,0.0218
10,B10,0.0875
11,B11,-0.209
12,B12,0.0958
13,B13,-0.0857
14,B14,-0.492
15,B15,0.125
16,B16,-0.0809
17,B17,0.219
18,B18,0.125
19,B19,0.109
20,B20,0.121
21,B21,0.267
22,B22,0.181
23,B23,-0.367
24,B24,-0.493
25,B25,-0.234
26,B26,-0.213
27,B27,-0.343
28,B28,0.00207
29,B29,-0.118
